Measurements as given in publication PMC4336329 (PLoS ONE, 2015).
In all, about 310,000 compounds went through this assay and about 2,200 (0.71%) showed an effect of 50% or more. The effect is printed as a negative number. This is one part of the list.

These molecules were tested against human ether-à-go-go-related gene (hERG) potassium channel (human, UniProt Q12809) (assay: primary screen, population patch clamp on CHO cells stably expressing hERG).
Chain of human ether-à-go-go-related gene (hERG) potassium channel (Q12809 whole entry, looked up): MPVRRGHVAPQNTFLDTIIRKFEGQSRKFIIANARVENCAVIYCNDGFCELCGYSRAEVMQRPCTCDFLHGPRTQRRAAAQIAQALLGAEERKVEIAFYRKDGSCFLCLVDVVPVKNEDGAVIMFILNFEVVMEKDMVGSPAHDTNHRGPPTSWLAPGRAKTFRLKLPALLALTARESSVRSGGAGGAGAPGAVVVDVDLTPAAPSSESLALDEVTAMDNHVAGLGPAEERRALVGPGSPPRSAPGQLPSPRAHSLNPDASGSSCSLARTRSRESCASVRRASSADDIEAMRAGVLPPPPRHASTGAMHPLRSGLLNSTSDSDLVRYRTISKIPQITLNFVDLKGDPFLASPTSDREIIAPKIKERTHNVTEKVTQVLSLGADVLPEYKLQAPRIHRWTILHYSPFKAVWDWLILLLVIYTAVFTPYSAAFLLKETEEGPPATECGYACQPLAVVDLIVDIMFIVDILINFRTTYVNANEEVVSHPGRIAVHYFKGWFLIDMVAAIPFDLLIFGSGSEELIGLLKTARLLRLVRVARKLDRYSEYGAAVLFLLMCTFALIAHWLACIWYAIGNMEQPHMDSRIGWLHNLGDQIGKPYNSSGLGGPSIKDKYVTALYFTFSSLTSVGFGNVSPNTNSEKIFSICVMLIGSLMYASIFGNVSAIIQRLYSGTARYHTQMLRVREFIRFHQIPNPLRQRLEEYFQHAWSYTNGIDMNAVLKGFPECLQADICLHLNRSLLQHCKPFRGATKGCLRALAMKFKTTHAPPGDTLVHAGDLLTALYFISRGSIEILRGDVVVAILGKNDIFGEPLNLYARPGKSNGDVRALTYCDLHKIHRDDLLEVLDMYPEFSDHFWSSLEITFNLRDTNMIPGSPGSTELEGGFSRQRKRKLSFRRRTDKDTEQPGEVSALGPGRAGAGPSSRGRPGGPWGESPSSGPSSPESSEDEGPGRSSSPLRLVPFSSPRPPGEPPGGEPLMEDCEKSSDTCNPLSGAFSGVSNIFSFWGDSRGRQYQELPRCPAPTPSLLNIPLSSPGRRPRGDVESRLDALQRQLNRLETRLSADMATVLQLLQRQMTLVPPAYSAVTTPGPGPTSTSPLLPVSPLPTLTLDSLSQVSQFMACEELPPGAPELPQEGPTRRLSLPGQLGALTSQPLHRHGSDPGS

Row | SMILES | hERG current change (%, negative = inhibition) at 1uM [%]
1 | COc1ccc(CC(=O)OCC(=O)NC2CCCCC2)cc1 | -5.43
2 | CCOc1ccc(NC(=O)NNC(=O)COc2ccc3ccccc3c2)cc1 | 13.5
3 | COc1cc(C(=O)Oc2cccc(/C=N/NC(=O)c3cc(C)[nH]n3)c2)cc(OC)c1OC | 16.6
4 | Cc1ccc(-c2cc(C(=O)N3CCc4ccccc4C3)[nH]n2)cc1C | 10.4
5 | COc1ccc(C2CC(C(F)(F)F)n3ncc(C(=O)NCC4CCCO4)c3N2)cc1OC (centres unmarked) | 2.65
6 | CC(=O)N1CCc2c(sc3c2c(=O)n(-c2ccccc2)c(=O)n3CC(=O)NCC2CCCO2)C1 (centres unmarked) | 4.41
7 | COc1ccc(NC(=O)CCn2nc(C)cc2C)cc1 | 8.97
8 | COC(=O)Cn1c(O)c(N=NC(=O)OC)c2ccccc21 | 17.7
9 | Cc1ccc(NC(=O)c2c(Cl)nc3ccccn23)cc1 | 7.95
10 | O=C(CC1CCCC1)NNC(=O)c1ccc(F)cc1 | 18.1
11 | CCCOc1ccc(C(=O)CCC(=O)OCC(=O)Nc2ccc(Oc3ccccc3)cc2)cc1 | 1.28
12 | Cc1cnc(C(=O)Nc2nnc(C3CC3)s2)cn1 | 7.89
13 | Cc1csc(NC(=O)CSc2nnc(-c3ccoc3C)n2C(C)c2ccccc2)n1 (centres unmarked) | -22.6
14 | Cn1c(=O)c(C(=O)NC2CCCCCCC2)c(O)c2ccccc21 | 9.49
15 | CCCSc1nc2ccsc2c(=O)n1CC | 3.04
16 | COc1ccc2c(C)cc(N3CCOCC3)nc2c1 | 6.69
17 | Cc1cccc(OCCC(=O)Nc2ccccc2C(N)=O)c1 | 12.3
18 | CC(=O)Cc1nsc(NC(=O)c2ccc(COc3ccccc3Cl)o2)n1 | 17.4
19 | CCOC(=O)Nc1nnc(/C=C/c2ccc(OC)cc2)s1 | 2.36
20 | Cc1ccc(NC(=O)Nc2sc(=S)n(C)c2C)cc1 | 5.1
21 | COc1cccc(CC(=O)NC2CCCN(Cc3ccc(Cl)cc3)C2)c1 (centres unmarked) | 7.04
22 | Cc1ccc(OCCNC(=O)c2cccc(C)c2)cc1 | 13
23 | CC(=O)c1cn(N(C)c2ncc(C(F)(F)F)cc2Cl)c(=O)[nH]c1=O | 8.81

Row | SMILES | hERG current change (%, negative = inhibition) at 1uM [%]
24 | COC(C/C=C/C(=O)[C@H](C)OCc1ccccc1)OC | 15.6
25 | COc1ccc(-n2nc([N+](=O)[O-])c(=NCc3ccc4c(c3)OCO4)n2O)cc1 | 12.5
26 | CCOC(=O)C1=C(COC(=O)CCOc2ccccc2C)NC(=O)NC1C (centres unmarked) | 1.11
27 | COc1ccc(CN2CCN(CCCc3ccccc3)C(CCO)C2)c(O)c1 (centres unmarked) | -71.2
28 | COc1ccc(Cn2c(-c3ccc(OC)cc3)n[nH]c2=S)cc1 | 19
29 | CC(C)CNC(=O)COC(=O)c1cc(S(=O)(=O)N(C)C)ccc1N1CCCC1 | 4.3
30 | COC(=O)Cn1c(CN2CCOCC2)nc2c1c(=O)[nH]c(=O)n2C | 4.01
31 | CCN(CC)C(=O)CSC(Nc1cccc(F)c1)=C(C#N)C#N | 14.1
32 | COc1ccccc1-c1ccc(SCC(=O)NCc2ccc3c(c2)OCO3)nn1 | 7.59
33 | O=C(NCCC1=CCCCC1)C1CCCN(S(=O)(=O)c2cccnc2)C1 (centres unmarked) | 1.68
34 | Cc1cc2c(cc1S(=O)(=O)N1CCN(c3ccccc3)CC1)OCC(=O)N2 | -4.77
35 | CCOCCCNS(=O)(=O)c1ccc(NC(=O)c2ccc(OC)c([N+](=O)[O-])c2)cc1 | 13.1
36 | Nc1nnc(CCN2C(=O)CSC2=O)s1 | 9.09
37 | O=C(CCN1CCOCC1)Nc1cc(C(=O)Nc2ccccc2F)ccc1N1CC2CC(C1)c1cccc(=O)n1C2 (centres unmarked) | 13.5
38 | O=C1NC(=O)N(c2ccc(Cl)cc2)C(=O)/C1=C\c1ccc(Sc2nc3ccccc3[nH]2)o1 | -48.6
39 | Cc1nnc(SCC(=O)NNC(=O)COc2ccc(Br)cc2)n1C | 2.23
40 | O=C(N/N=C/c1cn(-c2ccccc2)nc1-c1cccs1)c1ccncc1 | 7.24
41 | COc1ccc(OCC(=O)Nc2ccc3c(c2)nc(CCN2CCC(C)CC2)n3C)cc1 | -46.3
42 | O=C(COC(=O)C1CC2C=CC1C2)NCc1ccccc1Cl (centres unmarked) | 7.84
43 | c1ccc(Nc2ccccn2)nc1 | 8.47
44 | O=C(O)c1n[nH]c2ccccc12 | -0.333
45 | COCCN(C(=O)CSc1nnc(-c2cccs2)n1N)c1c(N)n(Cc2ccccc2)c(=O)[nH]c1=O | -7.85
46 | O=C(CCNS(=O)(=O)c1ccc(Cl)cc1)N1CCCCCC1 | 13

Row | SMILES | hERG current change (%, negative = inhibition) at 1uM [%]
47 | O=S(=O)(c1ccccc1F)N1CCN(CC(O)c2ccccc2)CC1 (centres unmarked) | 6.22
48 | Cc1cc(C)c(-c2c(O)c3cccc4c3n(c2=O)CCC4)c(C)c1 | 2.36
49 | CCN(CC)C(=O)C1=C(C)Nc2nnnn2C1c1cccnc1 (centres unmarked) | 1.65
50 | CCN(CC(=O)Nc1ccc(NC(C)=O)cc1)C(=O)CCCSc1nc2ccccc2[nH]1 | -4.05
51 | CCC(CC)NC(=O)COC(=O)CCC(=O)c1ccc(Cl)cc1 | 4.14
52 | COc1ccc([C@H]2Cc3cccc(O)c3C(=O)O2)cc1O | 8.6
53 | COC(=O)[C@H](CC(C)C)NC(=O)NCCC1=CCCCC1 | 12.6
54 | O=P(Nc1ccccc1Cl)(c1ccccc1)c1nc2c(s1)CCCC2 (centres unmarked) | -6.45
55 | O=C(C1CCCN(Cc2ccc([N+](=O)[O-])cc2)C1)N1CCCCC1.O=C(O)C(=O)O (centres unmarked) | -1.74
56 | CCOC(=O)C1=C(C)NC(=O)C1CC(=O)O (centres unmarked) | 27.8
57 | CCCCNC(=S)Nc1ccc2nc3n(c(=O)c2c1)CCCCC3 | -24.7
58 | COC(=O)C1(C)Nc2ccccc2C(=O)N1c1ccccc1OC (centres unmarked) | 9
59 | CSc1nnc2ccc(-c3ccccn3)nn12 | 13.2
60 | COc1ccc(-c2cc(C(F)(F)F)n3ncc(C(=O)O)c3n2)cc1OC | 13.4
61 | O=C(O)/C=C/c1ccc(S(=O)(=O)Nc2ccc3[nH]c(=O)[nH]c3c2)cc1 | 14.3
62 | CC(C)N1CCC(NC(=O)Nc2ccc3c(c2)OCO3)CC1 | 9.69
63 | COc1ccc(CCNC(=O)COc2cc(O)c3c(c2)OC(C)(C)CC3=O)cc1 | 5.73
64 | CN(C)CCCN(C(=O)c1ccc(N2C(=O)CCC2=O)cc1)c1nc2c(F)cccc2s1.Cl | 4.64
65 | Cc1sc2nc3ccc(NCc4ccco4)nn3c(=O)c2c1C | 7.05
66 | CCN(Cc1cnn(C)c1)Cc1nc(C2(c3ccc(C)cc3)CCCC2)no1 | 3.04
67 | CCCn1c(CNc2ccccc2O)nc2ccccc21 | 1.37
68 | COc1ccc(C(C(=O)NCC2CCCO2)N(Cc2ccco2)C(=O)c2snc(C(N)=O)c2N)cc1OC (centres unmarked) | 6.78
69 | COc1ccc(C(C(=O)NC(C)(C)C)N(C(=O)CCC(=O)Nc2cc(C)on2)c2cccc(F)c2)cc1 (centres unmarked) | 9.61

Row | SMILES | hERG current change (%, negative = inhibition) at 1uM [%]
70 | C[C@H]1CN=C(N(C)C)N1CCC1CCCC1 | 14.9
71 | CCN(CC)c1ccc2c(C)c(Cl)c(=O)oc2c1 | 4.68
72 | CC(C)Oc1ccc(Nc2ncnc3ccccc23)cc1.Cl | 3.47
73 | COc1ccccc1OCC(=O)N1CCCC(Nc2cccc(F)c2)C1 (centres unmarked) | 4.39
74 | CCC(=O)O/N=C(\N)c1ccc(Oc2cc(C)c(Cl)c(C)c2)c([N+](=O)[O-])c1 | 12.1
75 | CCOC(=O)N1CCN(S(=O)(=O)c2ccc(C(=O)N(CCCN(C)C)c3nc4c(F)cc(F)cc4s3)cc2)CC1.Cl | 0.648
76 | O=C(CN1CCN(Cc2ccccc2F)CC1)Nc1ccccc1Cl | 8.26
77 | CCNC(=O)NC(=O)COC(=O)CCc1nc(=O)c2ccccc2n1C | 9.3
78 | Nc1nnnn1/N=C/c1ccccc1OCc1ccc(Cl)cc1Cl | 5.55
79 | CCOC(=O)C1CCCN(C(=O)CNS(=O)(=O)c2ccc(Br)s2)C1 (centres unmarked) | -3.27
80 | COC(=O)C1CCN(C(c2cccs2)c2sc3nc(C)nn3c2O)CC1 (centres unmarked) | 4.94
81 | CCC1=NC(c2ccccc2)N(O)C1(C)C (centres unmarked) | 13
82 | CNS(=O)(=O)c1cccc(C(=O)OCC(=O)N2c3ccccc3NC(=O)C2(C)C)c1 | 1.64
83 | Oc1ccc(Cl)cc1C1=NCCNC(C(F)(F)C(F)F)=C1 | -12.9
84 | CCN(Cc1ccccc1)C(=O)c1ccc(C)c(S(=O)(=O)N2CCCCC2)c1 | 11.5
85 | Cc1ccc(S(=O)(=O)CCC(=O)OCCOc2cccc(Br)c2)cc1 | 0.325
86 | Cc1ccc2[nH]c3c(=O)n(CC(=O)NCCCN(C)Cc4ccccc4)ncc3c2c1 | -2.53
87 | CN(CC(=O)N1CCN(c2ccccn2)CC1)S(=O)(=O)c1ccc(Cl)cc1 | -3.6
88 | COc1ccccc1C(=O)O/N=C(/c1ccncc1)c1ccc([N+](=O)[O-])cc1 | 3.12
89 | O=C1Nc2ccccc2C(=O)N2[C@H](c3cccc(Br)c3)[C@@H]3C(=O)N(Cc4ccccc4)C(=O)[C@@H]3[C@H]12 | 9.98
